Some of the results follow. At the low end of the ranking the order means little.
Each sequence was assayed against GST-SBP-SLBP (stem-loop binding protein) (UniProt Q14493) (assay: targeted RNA Bind-n-Seq). Settings: RBNS binding buffer: 25 mM Tris pH 7.5, 150 mM KCl, 3 mM MgCl2, 0.1% Tween, 0.5 mg/mL BSA, 1 mM DTT; 27 nM protein, 750 pM RNA pool; temperature not stated; high values mean tight binding.
“GGUCACGUCUCAAUCAACUCAACUCCAGGAGUUUACUCCUGUAAUUUCAACAGCUCGCAGUCAAG” gave a binding signal (log2 fold change) of -0.142.
Sequence “GGUCACGUCUCAAUCAACUCAAAAGAGGGGGGGAAAACCCCUUUGCCCUCAACAUCAACAGCUCGCAGUCAAG” has a binding signal (log2 fold change) of -0.0239.
In the case of “GGUCACGUCUCAAUCAACUCAACUCCCAGGGAAAACCCUGGUUAUCUCAACAGCUCGCAGUCAAG”, the binding signal (log2 fold change) is reported as -0.00437.
With “GGUCACGUCUCAAUCAACUCAUUUUCAGGAGUUUGCUCCUGUUUAUUCAACAGCUCGCAGUCAAG” the binding signal (log2 fold change) was 0.186.
“GGUCACGUCUCAAUCAACUCUUCUUCCAGGGAAAACCCUGGCAUUUUCAACAGCUCGCAGUCAAG” gave a binding signal (log2 fold change) of 0.0828.
Work on “GGUCACGUCUCAAUCAACUCAACUCCAGGAGUUUACUCCUGUUUUUUCAACAGCUCGCAGUCAAG” yielded a binding signal (log2 fold change) of -0.0977.
“GGUCACGUCUCAAUCAACUCAAUUCCAGGAGUUUGCUCCUGUAUAUUCAACAGCUCGCAGUCAAG” was tested, and the binding signal (log2 fold change) was -0.0398.
“GGUCACGUCUCAAUCAACUCAUCCUCCAGGGAAAACCCUGGUUUUUUCAACAGCUCGCAGUCAAG” was tested, and the binding signal (log2 fold change) was 0.0507.
For “GGUCACGUCUCAAUCAACUCAGUCUCCAGGGAAAACCCUGGCAUAUUCAACAGCUCGCAGUCAAG”, the binding signal (log2 fold change) was 0.147.
With “GGUCACGUCUCAAUCAACUCUUCUCCAGGAGUUUUCUCCUGUAUUCUCAACAGCUCGCAGUCAAG” the binding signal (log2 fold change) was -0.111.
For “GGUCACGUCUCAAUCAACUCCUUAGAGGGGGGGAAAACCCCUUUGCCCUCCACAUCAACAGCUCGCAGUCAAG”, the binding signal (log2 fold change) was -0.263.
Sequence “GGUCACGUCUCAAUCAACUCAUUCUCAGGAGUUUCCUCCUGCUAUUUCAACAGCUCGCAGUCAAG” has a binding signal (log2 fold change) of 0.178.
“GGUCACGUCUCAAUCAACUCUUCCUCCAGGGAAACCCCUGGCUAACUCAACAGCUCGCAGUCAAG” gave a binding signal (log2 fold change) of -0.129.
Sequence “GGUCACGUCUCAAUCAACUCAGUUUCCAGGGAAAACCCUGGCAUAUUCAACAGCUCGCAGUCAAG” has a binding signal (log2 fold change) of 0.18.
Work on “GGUCACGUCUCAAUCAACUCUAUUUCAGGAGUUUUCUCCUGUUAUUUCAACAGCUCGCAGUCAAG” yielded a binding signal (log2 fold change) of 0.104.
“GGUCACGUCUCAAUCAACUCAAUCUCCAGGGAAAUCCCUGGUAAAUUCAACAGCUCGCAGUCAAG” showed a binding signal (log2 fold change) of 0.141.
“GGUCACGUCUCAAUCAACUCUUUUUCAGGAGUUUACUCCUGCAUUUUCAACAGCUCGCAGUCAAG” gave a binding signal (log2 fold change) of 0.0736.
With “GGUCACGUCUCAAUCAACUCAUCGCCCAGGGAAAACCCUGGUAUUUUCAACAGCUCGCAGUCAAG” the binding signal (log2 fold change) was 0.0628.
In the case of “GGUCACGUCUCAAUCAACUCAAUCCCCAGGGAAAACCCUGGCAUAGUCAACAGCUCGCAGUCAAG”, the binding signal (log2 fold change) is reported as -0.107.
“GGUCACGUCUCAAUCAACUCAAUGUCAGGAGUUUCCUCCUGCUUUUUCAACAGCUCGCAGUCAAG” showed a binding signal (log2 fold change) of 0.124.
“GGUCACGUCUCAAUCAACUCAACUUCAGGAGUUUGCUCCUGCUAACUCAACAGCUCGCAGUCAAG” showed a binding signal (log2 fold change) of 0.173.
With “GGUCACGUCUCAAUCAACUCUAUGGCAGGAGUUUACUCCUGGAAUCUCAACAGCUCGCAGUCAAG” the binding signal (log2 fold change) was -0.0279.
With “GGUCACGUCUCAAUCAACUCAGUUUCCAGGGAAACCCCUGGUUUUUUCAACAGCUCGCAGUCAAG” the binding signal (log2 fold change) was -0.156.
“GGUCACGUCUCAAUCAACUCUAUCGAGGGGGGGAAAACCCCUUUACCCUCUACAUCAACAGCUCGCAGUCAAG” showed a binding signal (log2 fold change) of -0.257.
In the case of “GGUCACGUCUCAAUCAACUCAAAAGAGGGGGGGAAAACCCCUUUACCCUCAUCUUCAACAGCUCGCAGUCAAG”, the binding signal (log2 fold change) is reported as 0.535.
For “GGUCACGUCUCAAUCAACUCGUUUUCAGGAGUUUCCUCCUGCAUUUUCAACAGCUCGCAGUCAAG”, the binding signal (log2 fold change) was 0.013.
“GGUCACGUCUCAAUCAACUCAGUUCCAGGAGUUUACUCCUGCUUAUUCAACAGCUCGCAGUCAAG” was tested, and the binding signal (log2 fold change) was 0.0709.
For “GGUCACGUCUCAAUCAACUCUUCCUCCAGGGAAAACCCUGGCAAACUCAACAGCUCGCAGUCAAG”, the binding signal (log2 fold change) was -0.204.
For “GGUCACGUCUCAAUCAACUCUACUCCCAGGGAAAGCCCUGGCAAACUCAACAGCUCGCAGUCAAG”, the binding signal (log2 fold change) was -0.256.
Sequence “GGUCACGUCUCAAUCAACUCUUCUUCAGGAGUUUUCUCCUGCAUACUCAACAGCUCGCAGUCAAG” has a binding signal (log2 fold change) of 0.0695.
“GGUCACGUCUCAAUCAACUCAACUUCAGGAGUUUGCUCCUGCUUUCUCAACAGCUCGCAGUCAAG” showed a binding signal (log2 fold change) of -0.0163.
“GGUCACGUCUCAAUCAACUCUUUCCCCAGGGAAAACCCUGGUUAUGUCAACAGCUCGCAGUCAAG” showed a binding signal (log2 fold change) of -0.209.
“GGUCACGUCUCAAUCAACUCUAUUUCAGGAGUUUUCUCCUGCAUAUUCAACAGCUCGCAGUCAAG” showed a binding signal (log2 fold change) of 0.0862.
In the case of “GGUCACGUCUCAAUCAACUCAUCGGCCAGGGAAAACCCUGGGAAUUUCAACAGCUCGCAGUCAAG”, the binding signal (log2 fold change) is reported as -0.0757.
For “GGUCACGUCUCAAUCAACUCUAUUCCAGGAGUUUCCUCCUGUUAAUUCAACAGCUCGCAGUCAAG”, the binding signal (log2 fold change) was 0.0551.
Work on “GGUCACGUCUCAAUCAACUCAAUCCCCAGGGAAACCCCUGGUAAUCUCAACAGCUCGCAGUCAAG” yielded a binding signal (log2 fold change) of -0.306.
With “GGUCACGUCUCAAUCAACUCUUUCGAGGGGGGGAAAACCCCUUUGCCCUCACUAUCAACAGCUCGCAGUCAAG” the binding signal (log2 fold change) was 0.2.
“GGUCACGUCUCAAUCAACUCAAUAGAGGGGGGGAAAACCCCUUUGCCCUCCACAUCAACAGCUCGCAGUCAAG” was tested, and the binding signal (log2 fold change) was 0.0561.
“GGUCACGUCUCAAUCAACUCUUCUUCCAGGGAAAUCCCUGGCAUAUUCAACAGCUCGCAGUCAAG” was tested, and the binding signal (log2 fold change) was 0.125.
“GGUCACGUCUCAAUCAACUCCAACGAGGGGGGGAAAACCCCUUUACCCUCAUCCUCAACAGCUCGCAGUCAAG” was tested, and the binding signal (log2 fold change) was -0.312.
“GGUCACGUCUCAAUCAACUCAGUCCCCAGGGAAACCCCUGGCAUUUUCAACAGCUCGCAGUCAAG” gave a binding signal (log2 fold change) of -0.549.
“GGUCACGUCUCAAUCAACUCUUUCCCAGGAGUUUUCUCCUGUUAAUUCAACAGCUCGCAGUCAAG” was tested, and the binding signal (log2 fold change) was -0.189.
With “GGUCACGUCUCAAUCAACUCAUCAGAGGGGGGGAAAACCCCUUUACCCUCCCAUUCAACAGCUCGCAGUCAAG” the binding signal (log2 fold change) was 0.112.
Sequence “GGUCACGUCUCAAUCAACUCAGUCUCCAGGGAAAACCCUGGCUUAUUCAACAGCUCGCAGUCAAG” has a binding signal (log2 fold change) of -0.0825.
For “GGUCACGUCUCAAUCAACUCAAUUCCAGGAGUUUCCUCCUGUUUAUUCAACAGCUCGCAGUCAAG”, the binding signal (log2 fold change) was -0.0688.
Sequence “GGUCACGUCUCAAUCAACUCUUAAGAGGGGGGGAAAACCCCUUUACCCUCACACUCAACAGCUCGCAGUCAAG” has a binding signal (log2 fold change) of -0.0851.
“GGUCACGUCUCAAUCAACUCAACUUCCAGGGAAAACCCUGGUUAUUUCAACAGCUCGCAGUCAAG” showed a binding signal (log2 fold change) of 0.173.
“GGUCACGUCUCAAUCAACUCAUCGCCAGGAGUUUACUCCUGUUAUUUCAACAGCUCGCAGUCAAG” showed a binding signal (log2 fold change) of -0.237.
“GGUCACGUCUCAAUCAACUCAUCCCCAGGAGUUUACUCCUGUUUUCUCAACAGCUCGCAGUCAAG” was tested, and the binding signal (log2 fold change) was 0.157.
In the case of “GGUCACGUCUCAAUCAACUCAACUUCCAGGGAAAGCCCUGGUUAAUUCAACAGCUCGCAGUCAAG”, the binding signal (log2 fold change) is reported as 0.0708.
In the case of “GGUCACGUCUCAAUCAACUCUUUCCCAGGAGUUUCCUCCUGCUUAUUCAACAGCUCGCAGUCAAG”, the binding signal (log2 fold change) is reported as -0.039.
Sequence “GGUCACGUCUCAAUCAACUCUCCCGAGGGGGGGAAAACCCCUUUACCCUCCACAUCAACAGCUCGCAGUCAAG” has a binding signal (log2 fold change) of 0.213.
In the case of “GGUCACGUCUCAAUCAACUCAUUCCCAGGAGUUUGCUCCUGCUAUCUCAACAGCUCGCAGUCAAG”, the binding signal (log2 fold change) is reported as 0.279.
For “GGUCACGUCUCAAUCAACUCUUCGUCAGGAGUUUCCUCCUGUUUUCUCAACAGCUCGCAGUCAAG”, the binding signal (log2 fold change) was -0.171.
For “GGUCACGUCUCAAUCAACUCUUCCUCAGGAGUUUCCUCCUGUUAUUUCAACAGCUCGCAGUCAAG”, the binding signal (log2 fold change) was 0.137.
Work on “GGUCACGUCUCAAUCAACUCUUCGCCCAGGGAAAGCCCUGGUUUUUUCAACAGCUCGCAGUCAAG” yielded a binding signal (log2 fold change) of -0.372.
For “GGUCACGUCUCAAUCAACUCUUUUUCCAGGGAAAUCCCUGGUAAUCUCAACAGCUCGCAGUCAAG”, the binding signal (log2 fold change) was 0.0389.
“GGUCACGUCUCAAUCAACUCUUCUUCCAGGGAAAUCCCUGGCAUACUCAACAGCUCGCAGUCAAG” gave a binding signal (log2 fold change) of 0.399.
“GGUCACGUCUCAAUCAACUCUCCGGAGGGGGGGAAAACCCCUUUACCCUCAUUCUCAACAGCUCGCAGUCAAG” was tested, and the binding signal (log2 fold change) was -0.16.
With “GGUCACGUCUCAAUCAACUCCCCAGAGGGGGGGAAAACCCCUUUGCCCUCAAAAUCAACAGCUCGCAGUCAAG” the binding signal (log2 fold change) was 0.119.
“GGUCACGUCUCAAUCAACUCCCUAGAGGGGGGGAAAACCCCUUUGCCCUCGUAUUCAACAGCUCGCAGUCAAG” showed a binding signal (log2 fold change) of -0.0734.
In the case of “GGUCACGUCUCAAUCAACUCUUUUUCCAGGGAAAUCCCUGGCUUAUUCAACAGCUCGCAGUCAAG”, the binding signal (log2 fold change) is reported as 0.031.
Work on “GGUCACGUCUCAAUCAACUCUAUCUCAGGAGUUUUCUCCUGUUAUCUCAACAGCUCGCAGUCAAG” yielded a binding signal (log2 fold change) of 0.132.
Sequence “GGUCACGUCUCAAUCAACUCUUUCCCAGGAGUUUUCUCCUGUUAUUUCAACAGCUCGCAGUCAAG” has a binding signal (log2 fold change) of 0.0605.
In the case of “GGUCACGUCUCAAUCAACUCAUCCCCCAGGGAAAACCCUGGCUAUUUCAACAGCUCGCAGUCAAG”, the binding signal (log2 fold change) is reported as 0.2.
For “GGUCACGUCUCAAUCAACUCAUCCUCAGGAGUUUGCUCCUGCAUAUUCAACAGCUCGCAGUCAAG”, the binding signal (log2 fold change) was 0.313.
Work on “GGUCACGUCUCAAUCAACUCUUUUUCCAGGGAAAACCCUGGCAAUGUCAACAGCUCGCAGUCAAG” yielded a binding signal (log2 fold change) of 0.0278.
Sequence “GGUCACGUCUCAAUCAACUCAGUCUCAGGAGUUUCCUCCUGCAAUCUCAACAGCUCGCAGUCAAG” has a binding signal (log2 fold change) of 0.0673.
With “GGUCACGUCUCAAUCAACUCAAUUUCCAGGGAAAGCCCUGGUAUUCUCAACAGCUCGCAGUCAAG” the binding signal (log2 fold change) was -0.0789.
Work on “GGUCACGUCUCAAUCAACUCUCAAGAGGGGGGGAAAACCCCUUUACCCUCCACCUCAACAGCUCGCAGUCAAG” yielded a binding signal (log2 fold change) of 0.21.
“GGUCACGUCUCAAUCAACUCAUCCUCAGGAGUUUACUCCUGUUUACUCAACAGCUCGCAGUCAAG” gave a binding signal (log2 fold change) of -0.0441.
“GGUCACGUCUCAAUCAACUCUAUCCCCAGGGAAAGCCCUGGCUAACUCAACAGCUCGCAGUCAAG” was tested, and the binding signal (log2 fold change) was -0.155.
“GGUCACGUCUCAAUCAACUCAACGGAGGGGGGGAAAACCCCUUUACCCUCAUCUUCAACAGCUCGCAGUCAAG” showed a binding signal (log2 fold change) of -0.0741.
Work on “GGUCACGUCUCAAUCAACUCUAUUUCCAGGGAAAGCCCUGGUUUUCUCAACAGCUCGCAGUCAAG” yielded a binding signal (log2 fold change) of -0.122.

Reference: article PMC5892938
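Further: DESeq read counts versus GST-SBP nonspecific binding control pulldown.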
